Assay results as given in the supplement of paper PMC10126150.
Sequences with one replicate were seen in a single cluster, so their values are uncertain.

tested on: ATP; experiment: switch fluorescence ratio, 500 uM ATP over buffer (Cy3 cluster intensity, sum of 5 cycles each) (fold (ratio)); higher = stronger signal-on switching upon ATP binding; sequences stand for … in TCGTCGGCAGCGTCAGATGTGTATAAGAGACAGTTTTTTTTTTTTTTTTTTTTTTTTT…TC; conditions: aptamer strand: ATP DNA aptamer (quencher-CACCTGGGGGAGTATTGCGGAGGAAGG + anchor), 100 nM annealed; ATP concentration: 500 uM; one replicate
Method in brief: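 The quencher-labelled ATP aptamer, at 100 nM, was annealed to Cy3-labelled switching-strand clusters on a modified Illumina MiSeq flow-cell. The clusters were imaged in selection buffer, then after 15 min with 500 uM ATP at 22 °C, and this buffer/ATP cycle ran five times with NaOH stripping and re-annealing between runs. Per-cluster fluorescence ratios, summed target-cycle over summed buffer-cycle Cy3 intensity, were averaged per switch-domain sequence. Clusters outside 100-1000 RFU were excluded.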
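Note: ATP exposure 15 min at 22 °C before imaging.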

| Sequence | switch fluorescence ratio |
| --- | --- |
| ATCCACAATG | 1.31 |
| GACTATGTA | 1.06 |
| TGGCTCTACG | 1.05 |
| ACAAAAGTC | 1.05 |
| TACCGATACT | 2.12 |
| TGGTTCGTG | 0.985 |
| GCACTGGGAC | 1.14 |
| ATTTATAGGC | 0.98 |
| GTGGCACGTT | 0.933 |
| TGATGACATG | 0.935 |
| CCCCTAGAGA | 1.07 |
| TTTGTTGCAC | 0.979 |
| GGTTCCCGTG | 1.07 |
| TGTGAAAAGC | 0.99 |
| ATCGCATGCT | 1.1 |
| ACATTGACAT | 1.18 |
| TCACCCAAAA | 1.06 |
| GTTCAGGCTC | 1 |
| CTAAAAAGTT | 1.02 |
| TATTCTGAG | 1.06 |
| TAGATAAAGG | 1.03 |
| CGTCGGACCA | 0.99 |
| TCGGCCAAGG | 1.13 |

| Sequence | switch fluorescence ratio |
| --- | --- |
| GCAACTCTCA | 1.21 |
| GGTCCGACT | 1.02 |
| AGTCCTGTTT | 0.979 |
| CATTAAGACT | 0.99 |
| TAAGGTAGTG | 1.03 |
| CGTAGAGGCT | 1.06 |
| GGCGGGACCA | 1.05 |
| TAATGATATG | 1 |
| TTTGCGATGT | 1 |
| ACGCTTCTC | 1.44 |
| CAGCTGAA | 1.03 |
| GGACGGAGTA | 0.986 |
| ATTCCACGTT | 1.04 |
| TTCTATTAT | 0.965 |
| ATTATCTCCA | 1.01 |
| TTCAGCGCTA | 1.1 |
| GGTCATTTCC | 1.09 |
| GCAAGGCCGA | 1.04 |
| AACGCTTGAG | 0.995 |
| ACGCCGCAAA | 4.34 |
| ATTTGGTCTG | 0.999 |
| CAGAACAGCA | 1.02 |
| CAAACGTCGA | 1.2 |

| Sequence | switch fluorescence ratio |
| --- | --- |
| CCTGCTGAAA | 1.08 |
| TCAGCGGTGG | 1.04 |
| GAAAAATGAG | 0.951 |
| ACTCGTTTGA | 1.04 |
| TTAATCTTGT | 1.01 |
| GACAGCGC | 1.12 |
| TGAGAGCTAT | 1.55 |
| CTGAGGTTG | 1 |
| GTTACAGCTC | 1.07 |
| CGTTGATTGT | 0.991 |
| GCGGCGTCGA | 1.03 |
| GTTGACTGCT | 0.988 |
| CAATCGATC | 0.981 |
| AAACCTTTTA | 1.04 |
| AAGGTTCCTA | 1.02 |
| GGGCCTTCCC | 1.15 |
| CCGAAACGTT | 1.17 |
| GAATATAGGT | 1.01 |
| CGGTGCCCTG | 1 |
| CCCGAGCACG | 1.44 |
| TCGTGTGAGC | 0.955 |
| AAGCCAACTG | 1.03 |
| GCCCGATGGA | 1.06 |

| Sequence | switch fluorescence ratio |
| --- | --- |
| TGCGTCCCCT | 1.02 |
| GGATCATCTG | 1.04 |
| TTTGCCACTC | 0.94 |
| ACTACGTATC | 1.42 |
| TGCAAAGTGC | 1.06 |
| AACCTCGGTA | 0.982 |
| GAGTATGGT | 1.01 |
| CTTTTAATGC | 1.05 |
| CCTCGGAGC | 1.38 |
| AGGAAATTC | 1.3 |
| GAGATTAAGG | 1.01 |
| ATGAGTGGGC | 1.03 |
| CACAGTATTC | 1.11 |
| CAACAAGCTT | 1.03 |
| ATCCGTCCTT | 1 |
| TTATGCGAT | 1.04 |
| TACCAGTTGG | 1.02 |
| TTAAGAAGAG | 0.996 |
| TTTAAGTATA | 0.973 |
| CTTTCGTCCG | 1.25 |
| CGGGTACTGG | 1.02 |
| GATCACGGGC | 1.04 |
| TTCTCCTAGT | 0.996 |

| Sequence | switch fluorescence ratio |
| --- | --- |
| GCGGGATGAC | 1.02 |
| GGGGATCTTG | 1.03 |
| CATTGCTCGC | 1.07 |
| GCTCCACTAA | 1.59 |
| CAGTCAGACT | 1.02 |
| TATCTTTAGC | 1 |
| TTCGAGCACT | 1.27 |
| ATATGCACGG | 1.02 |
| GCTATTCGCC | 1 |
| GGGTTTGGCA | 0.996 |
| CACTGCTCAC | 1.54 |
| TTGCGCTTCA | 1.04 |
| CGATAATAGT | 1.03 |
| TGTCGTCCTA | 0.991 |
| CGGGGCGTTA | 1.02 |
| CCTCGGCAGG | 4.75 |
| GCACCATGTC | 1.03 |
| TTAAGCCT | 1.16 |
| CTCTTCAAAA | 2.4 |
| GATGGCTGAC | 1.11 |
| CTACAAACGG | 1.37 |
| CATGGCCCGG | 0.939 |
| TAATTGTAGA | 0.976 |

| Sequence | switch fluorescence ratio |
| --- | --- |
| CGCGATAAAT | 1.01 |
| TTCATCTCCA | 1.04 |
| TGAGAAATTT | 1.24 |
| ATATAGTAAA | 1 |
| AACAAATTCC | 1.05 |
| CGGAAAGAGT | 1.02 |
| ATGTCCGAAC | 1.06 |
| CCACGGTTCG | 1 |
| CGGATGGACC | 0.94 |
| TCACAACTTG | 0.981 |
| TATCTTTGG | 0.989 |
| TTAGCTGAAT | 0.973 |
| ACCTTGCGCT | 1.14 |
| CCTATATAAG | 1.03 |
| GGCGCAAAGG | 1.21 |
| AATCTGTCAA | 1.15 |
| GTCCTAATAA | 0.988 |
| AAGCGAAGGT | 1.03 |
| CGGTCCAAGT | 0.946 |
| AGGGTATGAC | 0.975 |
| TTAGATTGTT | 1.01 |
| TCGAGTAACC | 1.04 |
| ATGAAATGT | 0.951 |

| Sequence | switch fluorescence ratio |
| --- | --- |
| TCTATTGGAG | 0.999 |
| GTGATGGGGC | 1.15 |
| TACTTTTCT | 1 |
| GTTCATGTGG | 0.995 |
| AGTAATATTG | 1.25 |
| GACCTAAGCA | 1.1 |
| ACTCTAGACA | 1.13 |
| GATGGATAAA | 1 |
| GACACAACAT | 1.11 |
| AGCATTGTAC | 2.66 |
| TTCAACGAGG | 0.957 |
| AAAGTGAGGA | 1.02 |
| TTTTTTGAA | 0.981 |
| CAGTGTAAAG | 1.02 |
| AATTAGGTTC | 0.991 |
| TCTTGACGC | 1.03 |
| CTTGTACCGC | 1.22 |
| TAAGCAACTT | 1.09 |
| TAGGGGAGCC | 0.995 |
| ATGGAGAGCG | 0.991 |
